# Measured values taken from the supplement of paper PMC10037445.
# In all, about 2,900 compounds were measured (“IRF Lucia reporter activity, fold change vs agonist alone”: median about 0.9, highest 2% from about 2.8 on). Some of the results follow.
# How the values were obtained:
# RAW-Dual [1] = experiment: IRF Lucia reporter activity, fold change vs agonist alone; cytotoxicity flag (confluency mask): not cytotoxic; higher = enhanced IRF activity
# Procedure, shortened: (§1)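 Reporter activity is given as fold change relative to agonist-alone wells. To measure it, 50 nL of library stock was pin-tooled onto RAW-Dual macrophages (50,000 cells/well, DMEM, 384-well plates), a PRR agonist followed 1 h later, and cells stayed at 37 °C, 5% CO2. Twenty hours on, supernatant was assayed for IRF (QuantiLuc luminescence) and NF-κB (QuantiBlue, 620 nm absorbance), and wells under 70% of agonist-control IncuCyte confluency in both mask sets were marked cytotoxic.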
# RAW-Dual [2] = experiment: IRF Lucia reporter activity, fold change vs agonist alone; higher = enhanced IRF activity; settings: cytotoxicity flag (confluency mask): not cytotoxic, agonist: MPLA (TLR4) […]
# Procedure, shortened: as §1
# RAW-Dual [3] = experiment: IRF Lucia reporter activity, fold change vs agonist alone; cytotoxicity flag (confluency mask): cytotoxic (confluency <70% of control); higher = enhanced IRF activity
# Procedure, shortened: as §1
# [4] = agonist: 3'3'-cGAMP (STING) 10 ug/mL
# [5] = library stock concentration (final ~1000-fold dilution): 10 mM
compound,measurement,setting,value
Cc1cc(-c2nc(-c3ccc(OC(F)(F)F)cc3)no2)nn1Cc1ccnc(N2CCN(C3CC3)CC2)c1 (library stock concentration (final ~1000-fold dilution): 10 mM),IRF Lucia reporter activity,RAW-Dual [1]; [4],1.27
same,IRF Lucia reporter activity,RAW-Dual [1]; agonist: LPS (TLR4) 0.1 ug/mL,1.04
Cc1cc(-c2nc(-c3ccc(OC(F)(F)F)cc3)no2)nn1Cc1ccnc(N2CCN(C3CC3)CC2)c1,IRF Lucia reporter activity,RAW-Dual [2]; [5],1.43
CC(=O)C1CCC2C3CCC4=CC(=O)CCC4(C)C3CCC12C (centres undefined) (library stock concentration (final ~1000-fold dilution): 10 mM),IRF Lucia reporter activity,RAW-Dual [1]; [4],1.06
same,IRF Lucia reporter activity,RAW-Dual [1]; agonist: LPS (TLR4) 0.1 ug/mL,0.453
CC(=O)C1CCC2C3CCC4=CC(=O)CCC4(C)C3CCC12C (centres undefined),IRF Lucia reporter activity,RAW-Dual [2]; [5],1.03
Cl.Cl.N/C(=N\OCC(O)CN1CCCCC1)c1cccnc1 (centres undefined) (library stock concentration (final ~1000-fold dilution): 10 mM),IRF Lucia reporter activity,RAW-Dual [1]; [4],0.993
same,IRF Lucia reporter activity,RAW-Dual [1]; agonist: LPS (TLR4) 0.1 ug/mL,0.959
C=C1CC[C@@H]2[C@](C)(CO)[C@H](O)CC[C@@]2(C)[C@@H]1/C=C/C1=CCOC1=O (library stock concentration (final ~1000-fold dilution): 10 mM),IRF Lucia reporter activity,RAW-Dual [1]; [4],1.19
same,IRF Lucia reporter activity,RAW-Dual [1]; agonist: LPS (TLR4) 0.1 ug/mL,1.09
O=C(O)P(=O)(O)O,IRF Lucia reporter activity,RAW-Dual [2]; library stock concentration (final ~1000-fold dilution): 10 mM water,1.35
O=C(O)P(=O)(O)O (library stock concentration (final ~1000-fold dilution): 10 mM water),IRF Lucia reporter activity,RAW-Dual [1]; [4],1.28
same,IRF Lucia reporter activity,RAW-Dual [1]; agonist: LPS (TLR4) 0.1 ug/mL,0.88
CC(C)(C)NS(=O)(=O)c1cncc(-c2cc(F)c3nc(N)nn3c2)c1 (library stock concentration (final ~1000-fold dilution): 10 mM),IRF Lucia reporter activity,RAW-Dual [1]; [4],0.838
same,IRF Lucia reporter activity,RAW-Dual [1]; agonist: LPS (TLR4) 0.1 ug/mL,1.18
CC(C)(C)NS(=O)(=O)c1cncc(-c2cc(F)c3nc(N)nn3c2)c1,IRF Lucia reporter activity,RAW-Dual [2]; [5],1.21
O=C1c2c(O)cc(O)cc2OC(c2cc(O)c(O)c(O)c2)C1O (centres undefined) (library stock concentration (final ~1000-fold dilution): 10 mM),IRF Lucia reporter activity,RAW-Dual [1]; [4],0.997
same,IRF Lucia reporter activity,RAW-Dual [1]; agonist: LPS (TLR4) 0.1 ug/mL,0.976
O=C1c2c(O)cc(O)cc2OC(c2cc(O)c(O)c(O)c2)C1O (centres undefined),IRF Lucia reporter activity,RAW-Dual [2]; [5],1.02
COc1cc(OC)cc(N(CCNC(C)C)c2ccc3ncc(-c4cnn(C)c4)nc3c2)c1 (library stock concentration (final ~1000-fold dilution): 10 mM),IRF Lucia reporter activity,RAW-Dual [3]; [4],0.661
same,IRF Lucia reporter activity,RAW-Dual [3]; agonist: LPS (TLR4) 0.1 ug/mL,1.6
Cc1[nH]c(/C=C2\C(=O)Nc3ccccc32)c(C)c1CCC(=O)O (library stock concentration (final ~1000-fold dilution): 10 mM),IRF Lucia reporter activity,RAW-Dual [1]; [4],0.752
same,IRF Lucia reporter activity,RAW-Dual [1]; agonist: LPS (TLR4) 0.1 ug/mL,0.475
Cc1[nH]c(/C=C2\C(=O)Nc3ccccc32)c(C)c1CCC(=O)O,IRF Lucia reporter activity,RAW-Dual [2]; [5],0.51
CC(=O)N1CCN(c2ccc(OCC3COC(Cn4ccnc4)(c4ccc(Cl)cc4Cl)O3)cc2)CC1 (centres undefined),IRF Lucia reporter activity,RAW-Dual [2]; library stock concentration (final ~1000-fold dilution): 2 mM,1.28
CC(=O)N1CCN(c2ccc(OCC3COC(Cn4ccnc4)(c4ccc(Cl)cc4Cl)O3)cc2)CC1 (centres undefined) (library stock concentration (final ~1000-fold dilution): 2 mM),IRF Lucia reporter activity,RAW-Dual [1]; [4],1.1
same,IRF Lucia reporter activity,RAW-Dual [1]; agonist: LPS (TLR4) 0.1 ug/mL,0.93
CN(C)CCC=C1c2ccccc2CCc2ccccc21.Cl,IRF Lucia reporter activity,RAW-Dual [2]; [5],1.45
CN(C)CCC=C1c2ccccc2CCc2ccccc21.Cl (library stock concentration (final ~1000-fold dilution): 10 mM),IRF Lucia reporter activity,RAW-Dual [1]; [4],0.546
same,IRF Lucia reporter activity,RAW-Dual [1]; agonist: LPS (TLR4) 0.1 ug/mL,1.27
CC(C)c1cnn2c(NCc3ccccc3-n3cccn3)nc(OC3CCCNC3)nc12 (centres undefined) (library stock concentration (final ~1000-fold dilution): 10 mM),IRF Lucia reporter activity,RAW-Dual [3]; [4],0.00484
same,IRF Lucia reporter activity,RAW-Dual [3]; agonist: LPS (TLR4) 0.1 ug/mL,0.0088
CNc1ncc2cc(-c3cc(NC(=O)NCCC(C)(C)C)c(F)cc3C)c(C)nc2n1 (library stock concentration (final ~1000-fold dilution): 2 mM),IRF Lucia reporter activity,RAW-Dual [1]; [4],0.83
same,IRF Lucia reporter activity,RAW-Dual [1]; agonist: LPS (TLR4) 0.1 ug/mL,0.521
CC1(C)SC2C(NC(=O)C(N)c3ccccc3)C(=O)N2C1C(=O)OCOC(=O)C1N2C(=O)CC2S(=O)(=O)C1(C)C (centres undefined) (library stock concentration (final ~1000-fold dilution): 10 mM),IRF Lucia reporter activity,RAW-Dual [1]; [4],1.01
same,IRF Lucia reporter activity,RAW-Dual [1]; agonist: LPS (TLR4) 0.1 ug/mL,1.41
CC1(C)SC2C(NC(=O)C(N)c3ccccc3)C(=O)N2C1C(=O)OCOC(=O)C1N2C(=O)CC2S(=O)(=O)C1(C)C (centres undefined),IRF Lucia reporter activity,RAW-Dual [2]; [5],1.08
C=CC(=O)N1CC(Nc2ncnc3[nH]ccc23)CCC1C (centres undefined) (library stock concentration (final ~1000-fold dilution): 10 mM),IRF Lucia reporter activity,RAW-Dual [1]; [4],0.607
same,IRF Lucia reporter activity,RAW-Dual [1]; agonist: LPS (TLR4) 0.1 ug/mL,0.815
COc1ccc2cccc(CCNC(C)=O)c2c1,IRF Lucia reporter activity,RAW-Dual [2]; [5],0.91
COc1ccc2cccc(CCNC(C)=O)c2c1 (library stock concentration (final ~1000-fold dilution): 10 mM),IRF Lucia reporter activity,RAW-Dual [1]; [4],0.874
same,IRF Lucia reporter activity,RAW-Dual [1]; agonist: LPS (TLR4) 0.1 ug/mL,1.06
COc1cc(CCC(=O)CC(O)CCc2ccc(O)c(OC)c2)ccc1O (centres undefined) (library stock concentration (final ~1000-fold dilution): 10 mM),IRF Lucia reporter activity,RAW-Dual [1]; [4],0.72
same,IRF Lucia reporter activity,RAW-Dual [1]; agonist: LPS (TLR4) 0.1 ug/mL,0.938
